In the supplement of paper PMC8728848:
This is one part of the list.

Assays:
Assay in all cases: glycan array binding signal (z-score within array); higher = stronger binding
Settings in all cases: glycan notation: IUPAC condensed, linker removed
Neu5Ac(a2-8)Neu5Ac = target: Neu5Ac(a2-8)Neu5Ac
Method in brief: (§1)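 The binding signal is a Z-score computed within each array. Data were drawn from 3228 arrays in the Consortium for Functional Glycomics database, restricted to those with a known protein sequence. Scores were averaged over arrays of the same protein sequence at different concentrations or buffers, and over linkers, and negative values can be taken as non-binding.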

[1] = target: Neu5Ac(a2-8)Neu5Ac(a2-3)Gal(b1-3)GalNAc(b1-4)[Neu5Ac(a2-3)]Gal(b1-4)Glc
Method in brief: as §1

[2] = target: Neu5Ac(a2-8)Neu5Ac(a2-3)Gal(b1-3)GalNAc(b1-4)[Neu5Ac(a2-8)Neu5Ac(a2-3)]Gal(b1-4)Glc
Method in brief: as §1

[3] = target: Neu5Ac(a2-8)Neu5Ac(a2-3)Gal(b1-4)Glc
Method in brief: as §1

[4] = target: Neu5Ac(a2-8)Neu5Ac(a2-3)Gal(b1-4)GlcNAc
Method in brief: as §1

[5] = target: Neu5Ac(a2-8)Neu5Ac(a2-3)[Gal(b1-3)GalNAc(b1-4)]Gal(b1-4)Glc
Method in brief: as §1

[6] = target: Neu5Ac(a2-8)Neu5Ac(a2-3)[GalNAc(b1-4)]Gal(b1-4)Glc
Method in brief: as §1

[7] = target: Neu5Ac(a2-8)Neu5Ac(a2-8)Neu5Ac
Method in brief: as §1

[8] = target: Neu5Ac(a2-8)Neu5Ac(a2-8)Neu5Ac(a2-3)Gal(b1-4)Glc
Method in brief: as §1

[9] = target: Neu5Ac(a2-8)Neu5Ac(a2-8)Neu5Ac(a2-3)[Gal(b1-3)GalNAc(b1-4)]Gal(b1-4)Glc
Method in brief: as §1

[10] = target: Neu5Ac(a2-8)Neu5Ac(a2-8)Neu5Ac(a2-3)[GalNAc(b1-4)]Gal(b1-4)Glc
Method in brief: as §1

[11] = target: Neu5Ac(a2-8)Neu5Ac(a2-8)Neu5Ac(a2-8)Neu5Ac(a2-3)[GalNAc(b1-4)]Gal(b1-4)Glc
Method in brief: as §1

[12] = target: Neu5Ac(a2-8)Neu5Gc(a2-3)Gal(b1-4)GlcNAc
Method in brief: as §1

[13] = target: Neu5Ac(b2-6)Gal(b1-4)GlcNAc
Method in brief: as §1

Neu5Ac(b2-6)GalNAc = target: Neu5Ac(b2-6)GalNAc
Method in brief: as §1

[14] = target: Neu5Ac9Ac(a2-3)Gal(b1-3)GlcNAc
Method in brief: as §1

[15] = target: Neu5Ac9Ac(a2-3)Gal(b1-4)GlcNAc
Method in brief: as §1

[16] = target: Neu5Ac9Ac(a2-6)Gal(b1-4)GlcNAc
Method in brief: as §1

[17] = target: Neu5Gc(a2-3)Gal(b1-3)GlcNAc
Method in brief: as §1

[18] = target: Neu5Gc(a2-3)Gal(b1-3)[Fuc(a1-4)]GlcNAc
Method in brief: as §1

Neu5Gc(a2-3)Gal(b1-4)Glc = target: Neu5Gc(a2-3)Gal(b1-4)Glc
Method in brief: as §1

[19] = target: Neu5Gc(a2-3)Gal(b1-4)GlcNAc
Method in brief: as §1

[20] = target: Neu5Gc(a2-3)Gal(b1-4)GlcNAc(b1-3)Gal(b1-4)GlcNAc(b1-2)Man(a1-3)[Neu5Gc(a2-3)Gal(b1-4)GlcNAc(b1-3)Gal(b1-4)GlcNAc(b1-2)Man(a1-6)]Man(b1-4)GlcNAc(b1-4)GlcNAc
Method in brief: as §1

[21] = target: Neu5Gc(a2-3)Gal(b1-4)[Fuc(a1-3)]GlcNAc
Method in brief: as §1

[22] = target: Neu5Gc(a2-6)Gal(b1-4)GlcNAc
Method in brief: as §1

Neu5Gc(a2-6)GalNAc = target: Neu5Gc(a2-6)GalNAc
Method in brief: as §1

[23] = target: Neu5Gc(a2-8)Neu5Ac(a2-3)Gal(b1-4)GlcNAc
Method in brief: as §1

[24] = target: Neu5Gc(a2-8)Neu5Gc(a2-3)Gal(b1-4)GlcNAc
Method in brief: as §1

[25] = target: Neu5Gc(a2-8)Neu5Gc(a2-3)Gal(b1-4)GlcNAc(b1-3)Gal(b1-4)GlcNAc
Method in brief: as §1

[26] = target: Neu5Gc(a2-8)Neu5Gc(a2-6)Gal(b1-4)GlcNAc
Method in brief: as §1

[27] = target: Neu5Gc(b2-6)Gal(b1-4)GlcNAc
Method in brief: as §1

B1: GS13686A-pdi-553-26-553 (Parabacteroides distasonis) (protein)
chain: NENPDKPTDDVNYNMNEPRLASTLRGGLIIEGNVEQRLKPLQIDFYSQMTVDGGGWGTKNYIQDDEWNNLVWEEYLKQIASINIVIRSLTEKDKDAYANTIAFARIWRVYVHTLAADKFGPMPFPAYEIVEANPPYKSLKDIYDEYFRELDAAINGFNDSAQPIFSDAGIDLIYKNDVSKWKRFANSLRLRLAVRLTEVDQEKCIAEANAAISSPAGLISDKADNAYMPPKADGSWGQDYNYTMFQITWSGPICMSKSVEKLVTNIGGVAWPQGVVNQTSGVAVSSVHPEKVDPRAPKIFQPGIENGDWKGLVYGPKAEEANTGIYQSKQCAELGFIIKDGYPYKSRPYDLFLSEEVHFLKAELYARGFIAGDAKSEYEAGVRASFATWGVTSEVDDYLTSTEKNEAGTSARYDDQQGAGNTALEKIITQKYIAGIPDLAQEGWNDKRRLNLPRLDVAVYRDQAVYNNNDKDILKSANFIKRMRYPTKESLINATEYEKGKSMLGGKGDIVSTPLWWDKNSNYCTSSK
What does the source list for B1?
glycan array binding signal (z-score) (Neu5Ac(a2-8)Neu5Ac): -0.281; glycan array binding signal (z-score) [1]: -0.122; glycan array binding signal (z-score) [2]: 0.891; glycan array binding signal (z-score) [3]: -0.157; glycan array binding signal (z-score) [4]: -0.184; glycan array binding signal (z-score) [5]: -0.014; glycan array binding signal (z-score) [6]: 0.06; glycan array binding signal (z-score) [7]: -0.353; glycan array binding signal (z-score) [8]: -0.13; glycan array binding signal (z-score) [9]: 0.013; glycan array binding signal (z-score) [10]: 0.334; glycan array binding signal (z-score) [11]: 0.062; glycan array binding signal (z-score) [12]: 0.094; glycan array binding signal (z-score) [13]: 0.458; glycan array binding signal (z-score) (Neu5Ac(b2-6)GalNAc): -0.38; glycan array binding signal (z-score) [14]: -0.071; glycan array binding signal (z-score) [15]: -0.161; glycan array binding signal (z-score) [16]: -0.251; glycan array binding signal (z-score) [17]: -0.353; glycan array binding signal (z-score) [18]: -0.275; glycan array binding signal (z-score) (Neu5Gc(a2-3)Gal(b1-4)Glc): -0.17; glycan array binding signal (z-score) [19]: -0.175; glycan array binding signal (z-score) [20]: 0.173; glycan array binding signal (z-score) [21]: 0.009; glycan array binding signal (z-score) [22]: 0.07; glycan array binding signal (z-score) (Neu5Gc(a2-6)GalNAc): -0.384; glycan array binding signal (z-score) [23]: -0.435; glycan array binding signal (z-score) [24]: 0.041; glycan array binding signal (z-score) [25]: -0.323; glycan array binding signal (z-score) [26]: -0.362; glycan array binding signal (z-score) [27]: -0.044
